Binding signal (normalized occupancy) data for 172 sequences are collected here from publication PMC4242493.

The list shows a part of the results. The list includes weakly bound sequences.

The assay deals with MaxL homodimer (UniProt P61244). In words: universal protein-binding microarray (PBM). To be noted: PBS-based mixture, 10 nM His-tagged protein dimer, 2% milk, 200 ng/uL BSA, 50 ng/uL salmon testes DNA, 0.02% TX-100; detection with Alexa 488 anti-His …; high values mean tight binding; most listed sequences are background and not binding sites; double strand, one strand shown.
UniProt P61244, sequence (P61244 whole entry): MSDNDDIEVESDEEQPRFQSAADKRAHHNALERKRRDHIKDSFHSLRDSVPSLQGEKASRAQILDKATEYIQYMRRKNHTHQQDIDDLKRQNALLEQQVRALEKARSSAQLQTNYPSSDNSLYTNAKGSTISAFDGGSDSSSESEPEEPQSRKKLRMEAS
In the case of AAAAAAAC, the binding signal (normalized occupancy) stood at 0.0784.

Regarding GCGTCGCC, the binding signal (normalized occupancy) was 0.07.

On to TACGGCGA, for which the binding signal (normalized occupancy) was 0.0706.

With CAGCACCG, the binding signal (normalized occupancy) is 0.0748.

For AAATTACT, the binding signal (normalized occupancy) was found to be 0.0683.

Consider CGTATCCA, for which the binding signal (normalized occupancy) was 0.0765.

Turning to CAGCTACC, the binding signal (normalized occupancy) came out at 0.0756.

Take GCGCCGTA: the binding signal (normalized occupancy) was 0.0682.

As to ACGACTAA, the binding signal (normalized occupancy) worked out at 0.0727.

AACCCGGA: the binding signal (normalized occupancy) stood at 0.0664.

Turning to ACTGGGTC, the binding signal (normalized occupancy) was determined as 0.0711.

As for CGGTGTTA, the binding signal (normalized occupancy) is 0.0761.

Regarding AGCAGCTA, the binding signal (normalized occupancy) was 0.0659.

As to AGATGGGC, the binding signal (normalized occupancy) was determined as 0.0703.

For the sequence ACGCATAG, the binding signal (normalized occupancy) was 0.0818.

AGCCTCTG: the binding signal (normalized occupancy) was 0.0661.

For ACGAGACG, the binding signal (normalized occupancy) was 0.0793.

Take CGACGGCC: the binding signal (normalized occupancy) amounted to 0.0667.

For AGAAGGCC, the binding signal (normalized occupancy) came out at 0.0678.

On to CTACCCGC, for which the binding signal (normalized occupancy) is 0.0717.

On to CGACATGC, for which the binding signal (normalized occupancy) amounted to 0.0992.

Take GACTAACC: the binding signal (normalized occupancy) was determined as 0.0778.

ACAACGAC: the binding signal (normalized occupancy) turned out to be 0.0726.

Turning to ATGAGGAG, the binding signal (normalized occupancy) is 0.0866.

Regarding AATGTCTA, the binding signal (normalized occupancy) came to 0.0754.

For the sequence CCAGCTTA, the binding signal (normalized occupancy) was determined as 0.071.

With CCAGACTA, the binding signal (normalized occupancy) is 0.071.

In the case of ACCTAGAG, the binding signal (normalized occupancy) amounted to 0.0718.

Turning to CACTATGG, the binding signal (normalized occupancy) came out at 0.0772.

Consider CGTCGTGC, for which the binding signal (normalized occupancy) worked out at 0.0826.

As for GGCTAATA, the binding signal (normalized occupancy) was determined as 0.0753.

For CGTTAAAG, the binding signal (normalized occupancy) was found to be 0.0759.

For the sequence CGAGGCCC, the binding signal (normalized occupancy) was found to be 0.0761.

On to GTTGGCTA, for which the binding signal (normalized occupancy) came out at 0.0693.

On to ATGCTCTA, for which the binding signal (normalized occupancy) was 0.0811.

Take GCGGCCGC: the binding signal (normalized occupancy) amounted to 0.0707.

On to CAATTGGA, for which the binding signal (normalized occupancy) is 0.0699.

Regarding GGAACGAC, the binding signal (normalized occupancy) came to 0.0779.

Take ACAAAGCC: the binding signal (normalized occupancy) was determined as 0.0706.

Turning to ACCCGCGC, the binding signal (normalized occupancy) amounted to 0.083.

In the case of ATAGATAT, the binding signal (normalized occupancy) was 0.0828.

On to GTGTTCAA, for which the binding signal (normalized occupancy) was found to be 0.0805.

On to ACTTACCT, for which the binding signal (normalized occupancy) stood at 0.0757.

Turning to AAATCATG, the binding signal (normalized occupancy) is 0.0871.

Regarding CAGTAACC, the binding signal (normalized occupancy) is 0.0731.

For the sequence AATCTACC, the binding signal (normalized occupancy) was 0.0765.

Consider GAGTACCC, for which the binding signal (normalized occupancy) turned out to be 0.0768.

In the case of GCCTAAGA, the binding signal (normalized occupancy) turned out to be 0.0739.

With AAATATGC, the binding signal (normalized occupancy) was found to be 0.0807.

In the case of GCTCTAAA, the binding signal (normalized occupancy) was found to be 0.0685.

On to ATTTGAGA, for which the binding signal (normalized occupancy) amounted to 0.0896.

Take CCTTTCCC: the binding signal (normalized occupancy) stood at 0.0725.

Take AGTGGTTG: the binding signal (normalized occupancy) is 0.0748.

In the case of CAACCCCA, the binding signal (normalized occupancy) was 0.0822.

In the case of AATCCTCA, the binding signal (normalized occupancy) was found to be 0.0757.

As for TCAGCAGA, the binding signal (normalized occupancy) amounted to 0.0717.

On to CCATAGAG, for which the binding signal (normalized occupancy) is 0.0709.

Turning to AAATTCGA, the binding signal (normalized occupancy) worked out at 0.0696.

Consider CATCACGA, for which the binding signal (normalized occupancy) was 0.0811.

Regarding AATATGTA, the binding signal (normalized occupancy) was 0.0801.

In the case of CTAGCGGC, the binding signal (normalized occupancy) came to 0.0675.

In the case of GCTCGTAC, the binding signal (normalized occupancy) turned out to be 0.0774.

Regarding AAAGAGGA, the binding signal (normalized occupancy) is 0.0738.

Take GCGTGGTA: the binding signal (normalized occupancy) was determined as 0.111.

ACACCTGT: the binding signal (normalized occupancy) was 0.0912.

Turning to AGCGACCG, the binding signal (normalized occupancy) amounted to 0.0667.

Take AGGGACTG: the binding signal (normalized occupancy) amounted to 0.07.

Regarding GATGGCCA, the binding signal (normalized occupancy) is 0.0755.

Turning to TCGGACGA, the binding signal (normalized occupancy) came out at 0.0696.

On to CAGACCCG, for which the binding signal (normalized occupancy) amounted to 0.07.

TACTTACA: the binding signal (normalized occupancy) was determined as 0.0777.

Regarding AGTTTGAT, the binding signal (normalized occupancy) was 0.0736.

Take AGGACGCG: the binding signal (normalized occupancy) came to 0.0691.

For the sequence GCTGCGGA, the binding signal (normalized occupancy) came out at 0.0698.

Turning to CCACGGTA, the binding signal (normalized occupancy) is 0.0754.

As for CAACCTAC, the binding signal (normalized occupancy) turned out to be 0.0774.

For TCGGTAAA, the binding signal (normalized occupancy) was 0.0756.

With CAGTGTCC, the binding signal (normalized occupancy) was 0.0763.

For the sequence ATAGGTTG, the binding signal (normalized occupancy) was 0.0765.

Turning to ACTCGGCG, the binding signal (normalized occupancy) worked out at 0.0704.

Take GTCGCCCA: the binding signal (normalized occupancy) turned out to be 0.0715.

With GAACCCCC, the binding signal (normalized occupancy) was found to be 0.0764.

On to ACAGAGGG, for which the binding signal (normalized occupancy) was 0.0744.

For AGCACAAT, the binding signal (normalized occupancy) was determined as 0.0813.

For the sequence ACGGTCCT, the binding signal (normalized occupancy) came to 0.0698.

ATGAGTCA: the binding signal (normalized occupancy) turned out to be 0.082.

In the case of ATCCCACA, the binding signal (normalized occupancy) worked out at 0.0819.

Regarding CACGGTAG, the binding signal (normalized occupancy) was 0.0752.

On to AATGGTGT, for which the binding signal (normalized occupancy) was determined as 0.0809.

For ATGGCGGA, the binding signal (normalized occupancy) turned out to be 0.0751.

Turning to AAACGTCC, the binding signal (normalized occupancy) stood at 0.0718.

Take AGGGCGCA: the binding signal (normalized occupancy) is 0.0704.

Regarding ACCGTTAC, the binding signal (normalized occupancy) amounted to 0.0748.

On to TACCCGCA, for which the binding signal (normalized occupancy) is 0.0749.

Consider GGGCCCCC, for which the binding signal (normalized occupancy) was found to be 0.0684.

With CTCGGTCA, the binding signal (normalized occupancy) was determined as 0.0733.

Turning to ACTTGGTG, the binding signal (normalized occupancy) turned out to be 0.0764.

In the case of AGATCTAC, the binding signal (normalized occupancy) came to 0.08.

On to CACAGTGA, for which the binding signal (normalized occupancy) was found to be 0.0715.

Take GCCGGCGC: the binding signal (normalized occupancy) turned out to be 0.0701.

For the sequence GCAAGATA, the binding signal (normalized occupancy) was determined as 0.0778.

As for TCTGAAAA, the binding signal (normalized occupancy) worked out at 0.0722.

Turning to GCCTGGTA, the binding signal (normalized occupancy) was determined as 0.077.

For the sequence TATTCGGA, the binding signal (normalized occupancy) was 0.0723.

For CAGCTGAC, the binding signal (normalized occupancy) stood at 0.0699.

Regarding AGAACGCG, the binding signal (normalized occupancy) stood at 0.0788.

As for CCTACTAC, the binding signal (normalized occupancy) turned out to be 0.0776.

As to ATTATGCA, the binding signal (normalized occupancy) amounted to 0.0808.

With ACCAATAT, the binding signal (normalized occupancy) amounted to 0.0794.

With ACTCAACA, the binding signal (normalized occupancy) is 0.0776.

As for AGCTACAC, the binding signal (normalized occupancy) is 0.0732.

Consider AGCAGGCA, for which the binding signal (normalized occupancy) was 0.076.

As for AGGACTGG, the binding signal (normalized occupancy) was 0.073.

Regarding AAGCTTCC, the binding signal (normalized occupancy) was determined as 0.068.

With GAACCTAC, the binding signal (normalized occupancy) came out at 0.0739.

Consider ACCGGGTG, for which the binding signal (normalized occupancy) is 0.0789.

ACCTTGAC: the binding signal (normalized occupancy) was 0.0773.

Take AGAGTCTA: the binding signal (normalized occupancy) was 0.0689.

Consider CATCGGGC, for which the binding signal (normalized occupancy) amounted to 0.0726.

As to CGGAGTTC, the binding signal (normalized occupancy) was 0.0674.

Take CTGAGCCA: the binding signal (normalized occupancy) amounted to 0.0705.

For CCTCTGGA, the binding signal (normalized occupancy) is 0.0723.

For the sequence TCGAAAGA, the binding signal (normalized occupancy) came to 0.0725.

As for ACCCAGAC, the binding signal (normalized occupancy) came to 0.0678.

AAAAGCGA: the binding signal (normalized occupancy) was determined as 0.0668.

As to AAATGCTA, the binding signal (normalized occupancy) amounted to 0.0773.

Turning to ATTACTGC, the binding signal (normalized occupancy) came to 0.0709.

Regarding AGCAAGCA, the binding signal (normalized occupancy) stood at 0.0713.

In the case of GTGCCGCA, the binding signal (normalized occupancy) stood at 0.0837.

For the sequence ACGAGTCT, the binding signal (normalized occupancy) was found to be 0.0791.

In the case of CAGAACGA, the binding signal (normalized occupancy) was determined as 0.0776.

As for AAACATGT, the binding signal (normalized occupancy) was found to be 0.0983.

As for CCCCTCAC, the binding signal (normalized occupancy) was found to be 0.0803.

In the case of ATTTCTTC, the binding signal (normalized occupancy) amounted to 0.0749.

In the case of ACGGAGAA, the binding signal (normalized occupancy) came out at 0.0698.

In the case of GCCTCCAC, the binding signal (normalized occupancy) was determined as 0.0787.

For the sequence GAGAAACC, the binding signal (normalized occupancy) came to 0.0763.

In the case of AGCTGTCC, the binding signal (normalized occupancy) worked out at 0.0691.

As to CTCACCCC, the binding signal (normalized occupancy) amounted to 0.0824.

With AGCCATGG, the binding signal (normalized occupancy) worked out at 0.0832.

As to CATGGAGC, the binding signal (normalized occupancy) turned out to be 0.081.

GCAGTATA: the binding signal (normalized occupancy) was determined as 0.0755.

As to CAGACAGG, the binding signal (normalized occupancy) worked out at 0.0724.

As to AGAGCATC, the binding signal (normalized occupancy) is 0.0755.

In the case of AAAGGCGG, the binding signal (normalized occupancy) is 0.0698.

Take ACAACGCC: the binding signal (normalized occupancy) worked out at 0.0737.

For the sequence GAGGCATC, the binding signal (normalized occupancy) was 0.0704.

Turning to ATCGTGGA, the binding signal (normalized occupancy) was determined as 0.084.

As to ATCGGCTG, the binding signal (normalized occupancy) amounted to 0.0688.

As for CAGTAGCG, the binding signal (normalized occupancy) came to 0.0653.

With AAGCAGCC, the binding signal (normalized occupancy) worked out at 0.0714.

With AAACTCGT, the binding signal (normalized occupancy) turned out to be 0.0762.

Regarding GGATACCA, the binding signal (normalized occupancy) turned out to be 0.0777.

As for AATCACAG, the binding signal (normalized occupancy) is 0.0732.

GGATGGAA: the binding signal (normalized occupancy) is 0.0785.

As for ATGCGAGG, the binding signal (normalized occupancy) stood at 0.0841.

In the case of ACGCAGCC, the binding signal (normalized occupancy) came out at 0.0737.

For CGTGGTCC, the binding signal (normalized occupancy) came to 0.0896.

GATACGCA: the binding signal (normalized occupancy) was found to be 0.0746.

For the sequence AATTTCAC, the binding signal (normalized occupancy) amounted to 0.0751.

With AACGAGGC, the binding signal (normalized occupancy) worked out at 0.0809.

Consider GCTTGTAC, for which the binding signal (normalized occupancy) was 0.0767.

Turning to CTGTGGGA, the binding signal (normalized occupancy) was 0.0765.

In the case of CTGCCAGA, the binding signal (normalized occupancy) was 0.0702.

As to TGATGGCA, the binding signal (normalized occupancy) was found to be 0.08.

For AGACGTGC, the binding signal (normalized occupancy) stood at 0.0761.

ACGGGATC: the binding signal (normalized occupancy) stood at 0.0775.

Turning to GCTCTTTA, the binding signal (normalized occupancy) came to 0.0666.

For the sequence ACGACAAC, the binding signal (normalized occupancy) was 0.0759.

With CACATGGG, the binding signal (normalized occupancy) worked out at 0.166.

For the sequence AGGTCTTG, the binding signal (normalized occupancy) was determined as 0.0734.

For ATTTCACG, the binding signal (normalized occupancy) worked out at 0.0776.
